# From PubChem BioAssay AID504832 (National Center for Advancing Translational Sciences (NCATS), 2011)
# About 18,000 (5.8%) of roughly 310,000 compounds were called active. This list was built around the results that the source calls inconclusive (neither active nor inactive); the mix of calls is not that of the screen. Calls come from the whole dose curve; as a rule, active = well fitted inhibition curve with a large enough effect; inconclusive = small, poorly fitted or top-dose-only effect, or another doubt; inactive = no such curve, though single readings can be large or run the other way. Potencies of inconclusive entries are left out as doubtful fits.
# Experiment: Primary qHTS for delayed death inhibitors of the malarial parasite plastid, 48 hour incubation
# Conditions: P. falciparum luciferase growth in erythrocytes; series mostly up to 28.7 µM
# How it was run: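 First compound was added to culture medium, then infected red cells at 0.1% parasitemia and 2% hematocrit (final). After incubation at 37 C under 5% CO2, luciferase detection reagent was dispensed and light output recorded.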
# Potency is the fitted concentration of half-maximal effect; tags give direction and shape of the fitted curve.
row,SMILES,Potency
1,O=C(Nc1ccc(S(=O)(=O)N2CCCC2)cc1)c1ccc(CN2CCOCC2)cc1,"inconclusive [inhibitor, single point]"
2,COC(=O)c1noc(C)c1-c1ccnn1C(=O)c1ccc(C)cc1,"inconclusive [inhibitor, partial curve, poor fit]"
3,CCCCc1ccc(NC(=O)CSc2nnc(C)c(=O)n2N)cc1,"inconclusive [inhibitor, partial curve, poor fit]"
4,O=C(Cn1nnc(-c2ccc(S(=O)(=O)N3CCCC3)cc2)n1)Nc1ccccc1-n1cccc1,active: 9.28 µM
5,COC(=O)c1c(NC(=O)COC(=O)CNC(=O)C2CCCCC2)sc(C)c1C,inactive
6,CCn1c(=O)cc(OCC(=O)NCCc2ccc(OC)c(OC)c2)c2ccccc21,"inconclusive [inhibitor, partial curve, poor fit]"
7,O=C1C=C(NNC(=O)c2ccncc2)CC(c2ccccc2)C1 (stereo not drawn),"inconclusive [inhibitor, partial curve, poor fit]"
8,CC(C)n1cnc2c(Nc3cccc(Cl)c3)nc(NCCCO)nc21,"inconclusive [inhibitor, single point]"
9,CCN(CC)S(=O)(=O)c1cccc(N=NC2=C(O)CCCC2=O)c1,"inconclusive [inhibitor, single point]"
10,COc1ccc(Cl)cc1Nc1nc(-c2sc(NC(=O)CC(C)C)nc2C)cs1,active: 10.4 µM
11,COc1ccc(NS(=O)(=O)c2ccc3nc(COc4ccc(Cl)c(C)c4)[nH]c3c2)cc1,"inconclusive [inhibitor, single point]"
12,O=[N+]([O-])c1ccc(-c2nn(-c3ccccc3)cc2/C=N/n2c(-c3ccncc3)n[nH]c2=S)cc1,"inconclusive [inhibitor, single point]"
13,CCOC(=O)C1(CC2CCCCO2)CCN(C(=O)Nc2ccccc2)CC1 (stereo not drawn),"inconclusive [inhibitor, full curve, poor fit]"
14,O=c1[nH]c(C2CCN(S(=O)(=O)Cc3ccccc3)CC2)nc2c1nnn2Cc1ccccc1Cl,"inconclusive [inhibitor, partial curve]"
15,COc1ccc(CCNC(=O)C2CCC(CNS(=O)(=O)c3ccccc3)CC2)cc1OC (stereo not drawn),"inconclusive [inhibitor, partial curve, poor fit]"
16,COc1cccc(-c2ccc3ncnc(NCc4cccc(F)c4)c3c2)c1,active: 6.57 µM
17,CC(C)CNS(=O)(=O)c1ccc(OCC(=O)Nc2ccc3c(c2)OCO3)c(Cl)c1,"inconclusive [inhibitor, partial curve, poor fit]"
18,CCOC(=O)[C@H]1[C@H]2COc3ccc(Cl)cc3[C@@H]2N2C(=O)CN(Cc3ccccc3)C(=O)[C@@]12C,"inconclusive [inhibitor, single point]"
19,O=C(NCc1ccco1)c1cc2cc3ccc(Cl)cc3nc2o1,"inconclusive [inhibitor, partial curve, poor fit]"
20,Fc1ccc2[nH]c3c(N4CCN(c5ccccc5)CC4)ncnc3c2c1,active: 13.1 µM
21,O=C(c1cc(Cl)ccc1Cl)N1CCN(c2ccccn2)CC1,inactive
22,CCCCN1CC(=O)N2[C@H]3c4ccccc4OC[C@@H]3[C@H](c3ccccc3)[C@]2(C)C1=O,"inconclusive [inhibitor, single point]"
23,COc1ccccc1N(CC(=O)N/N=C/c1c(O)ccc2ccccc12)S(C)(=O)=O,inactive

row,SMILES,Potency
1,CCOc1ccc(-c2nc(N)ncc2Oc2ccc(OC)cc2)c(O)c1,active: 11.7 µM
2,Cc1ccc(S(=O)(=O)N2CCN(C(=O)c3cc(=O)[nH]c4ccccc34)CC2)c(C)c1,"inconclusive [inhibitor, single point]"
3,Cc1nccc(-c2cccc(NC(=O)c3ccccc3Cl)c2)n1,"inconclusive [inhibitor, partial curve, poor fit]"
4,Cc1cccc(OCC(=O)N2CCN(c3nnc(-c4ccccc4)c4ccccc34)CC2)c1,"inconclusive [inhibitor, partial curve, poor fit]"
5,O=C(Nc1cccnc1)c1cccc(-c2cc3ccccc3oc2=O)c1,inactive
6,CCOc1ccc(NC(=O)c2cc3ccccc3cc2O)cc1,active: 1.04 µM
7,CCc1cc(=O)oc2c(C)c(OCC(=O)N3CCCc4ccccc43)ccc12,active: 11.7 µM
8,Fc1ccc(-c2[nH]ncc2CN(CC2CCC2)CC2CCCO2)c(F)c1 (stereo not drawn),inactive
9,CCC(C)(c1nnnn1-c1c(C)cccc1C)N(N=O)c1cccc(C(F)(F)F)c1 (stereo not drawn),active: 11.7 µM
10,CCOc1ccc(NC(=O)CC2C(=O)N(c3ccccc3)C(=O)N2CCOC)cc1 (stereo not drawn),"inconclusive [inhibitor, partial curve]"
11,COc1ccccc1NC(=O)Nc1nc(CC(=O)Nc2cc(F)ccc2F)cs1,inactive
12,CCN(CC)C(=O)CC(c1ccc(OC)cc1)c1c(OC)cc(OC)c2ccc(=O)oc12 (stereo not drawn),active: 10.4 µM
13,Cc1ccc(O)c(N=Cc2cc(Cc3ccccc3)cc([N+](=O)[O-])c2O)c1,"inconclusive [inhibitor, single point]"
14,CCCc1nc2c(=O)[nH]c3ccccc3c2o1,"inconclusive [inhibitor, partial curve, poor fit]"
15,Fc1ccc(-c2nc3ccccn3c2NCc2ccc3c(c2)OCO3)cc1,active: 8.28 µM
16,O=C(COc1cccc2c1CCN(Cc1ccccc1)C2=O)NCc1ccco1,"inconclusive [inhibitor, partial curve]"
17,COc1ccc(-c2cc(C(=O)Nc3cc(Cl)ccc3OC)no2)cc1,inactive
18,Cc1cc(Nc2ccc3c(c2)OCCO3)c2cccc(C)c2n1,"inconclusive [inhibitor, single point]"
19,N=c1c(S(=O)(=O)c2ccc(Cl)cc2)cc2c(=O)n3ccccc3nc2n1C1CCCC1,"inconclusive [inhibitor, single point]"
20,COc1ccc(Br)cc1C(=O)Nc1ccc(Cc2ccncc2)cc1,"inconclusive [inhibitor, partial curve]"
21,CC(C)Cn1cc(C(=O)NCC2CCCO2)c2c3ccccc3n(C)c2c1=O (stereo not drawn),active: 13.1 µM
22,Cc1ccc2nc(/N=C(\N)NC(=O)NC3CCCCC3)nc(C)c2c1,"inconclusive [inhibitor, full curve]"
23,Cc1c(C(=O)OCC(C)C)[nH]c2c1C(=O)CC(c1cccs1)C2 (stereo not drawn),"inconclusive [inhibitor, single point]"

row,SMILES,Potency
1,O=C(Nc1ccccc1)OCC(CN1CCCCC1)OC(=O)Nc1ccccc1 (stereo not drawn),"inconclusive [inhibitor, single point]"
2,CCCCNC(=O)COn1nnc2ccc(S(=O)(=O)N3CCOCC3)cc21,inactive
3,Cc1cc2nc(-c3ccc(SCc4ccc(C(=O)O)cc4)nc3)[nH]c2cc1C,"inconclusive [inhibitor, partial curve, poor fit]"
4,CSc1ccccc1OCc1cc(C(=O)NCCN2CCCc3ccccc32)no1,"inconclusive [inhibitor, partial curve, poor fit]"
5,CC1(C)CC(=O)C(=Cc2cn(-c3ccccc3)nc2-c2ccc(Cl)cc2)C(=O)C1,inactive
6,COc1cn(-c2ccccc2)nc1C(=O)Nc1ccccc1,inactive
7,CC(C)Cc1ccc(CN2CCCC(NC(=O)c3ccnn3C)C2)cc1 (stereo not drawn),"inconclusive [inhibitor, single point]"
8,C=CCNc1nc(NC(C)(C)CO)nc(OCC)n1,inactive
9,O=C(N/N=C\c1ccc(Cl)s1)c1ccc(Cn2cccn2)o1,inactive
10,Cc1ccc2c(c1)c(=O)c(Br)c(C)n2Cc1ccccc1,"inconclusive [inhibitor, partial curve]"
11,CCOC(=O)Cn1c(=N)n(CCOc2cccc(C)c2)c2ccccc21,inactive
12,COc1ccc(-c2c(C)nn3c(N4CCC(C(=O)N5CCCCC5)CC4)cc(C)nc23)cc1OC,"inconclusive [inhibitor, partial curve, poor fit]"
13,Cc1c(C(=O)N2CCCC2)c(S(=O)(=O)NCCc2ccccc2)c(C)n1C,inactive
14,COc1cc(Nc2c3c(nc4ccccc24)CCCC3)cc(OC)c1OC,"inconclusive [inhibitor, partial curve, poor fit]"
15,O=C(COC(=O)/C=C/c1ccccc1)NNC(=O)c1ccc([N+](=O)[O-])cc1,inactive
16,NC(N)=NN=C1CCCCCCCCCCC1,active: 10.4 µM
17,Cc1ccc2c(c1)Oc1ccc(NC(=O)CCl)cc1C(=O)N2,"inconclusive [inhibitor, partial curve, poor fit]"
18,O=C(Nc1ccc(-c2nc3ccccc3[nH]2)cc1)c1ccc2c(c1)OCO2,active: 9.28 µM
19,O=C(Nc1cccc(-c2cn3ccccc3n2)c1)c1ccccc1,"inconclusive [inhibitor, single point]"
20,CCCCN(CCCC)C(=O)CSc1nnc2n(C)c(=O)c3c4c(sc3n12)CCCC4,"inconclusive [inhibitor, partial curve, poor fit]"
21,Cc1ccc(N2C(=O)N(CC(=O)N(C)Cc3ccccc3)C(=O)C2C)cc1 (stereo not drawn),"inconclusive [inhibitor, single point]"
22,O=C(CNC(=O)C(c1ccccc1)c1ccccc1)N/N=C\c1cccc(O)c1,"inconclusive [inhibitor, partial curve, poor fit]"
